Results on three molecules are retold here after patent US20220089695A1 (NEW YORK UNIVERSITY, published 2022).

First the molecules themselves.
B1: G11-Fc (Fc fusion)
chain: QVQLVESGGGLVQAGDSVRLSCTVSGRSITMYTMDWWRQAPGKGREFVATITSSGKPNYANSVKGRATVDRDNSKNTLYLQMNSLRAEDTAVYSCHALLSTHSELGPFYDYWGQGTLVTVSS[human IgG1 Fc cut from this listing]
B2: A8-G11-Fc bispecific antibody (bispecific antibody)
chain: QVQLVESGGGLVQAGDSLRLSCAASGRDSSRDAMAWFRQAPGKQLELVASITAGGHTNYADSVEGRFTISRDNAKNTVYLQMNALEPEDTAVYRCFADVYGSDRPSWGRGTLVTVSSGGGGSGGGGSGGGGSQVQLVESGGGLVQAGDSVRLSCTVSGRSITMYTMDWWRQAPGKGREFVATITSSGKPNYANSVKGRATVDRDNSKNTLYLQMNSLRAEDTAVYSCHALLSTHSELGPFYDYWGQGTLVTVSS[human IgG1 Fc cut from this listing]
B3: A8-Fc (Fc fusion)
chain: QVQLVESGGGLVQAGDSLRLSCAASGRDSSRDAMAWFRQAPGKQLELVASITAGGHTNYADSVEGRFTISRDNAKNTVYLQMNALEPEDTAVYRCFADVYGSDRPSWGRGTLVTVSS[human IgG1 Fc cut from this listing]

The target of the experiment is SARS-CoV-2 Spike (S) protein, recombinant, construct not stated at the place (SARS-CoV-2).
In the case of B1, the equilibrium dissociation constant (Kd) (in general, a measure of binding affinity in units of concentration) was found to be 0.782 nM and the koff (as a rule, a measure of how fast the partners let go of each other) was 0.000265 s⁻¹.
In the same order, the values of B2 are 0.18 nM and 4.16e-05 s⁻¹.
As for B3, the Kd amounted to 0.973 nM and the koff is 0.000201 s⁻¹.
